Assay results reported in the supplement of paper PMC3334620.
The full ranking holds about 33,000 sequences; the median of “E-score (-0.5 to 0.5)” is about -0.054, and the highest 2% start at about 0.35. The list shows a part of the results.

Molecular target: T1, Stb5 (UniProt P38699)
T1 sequence: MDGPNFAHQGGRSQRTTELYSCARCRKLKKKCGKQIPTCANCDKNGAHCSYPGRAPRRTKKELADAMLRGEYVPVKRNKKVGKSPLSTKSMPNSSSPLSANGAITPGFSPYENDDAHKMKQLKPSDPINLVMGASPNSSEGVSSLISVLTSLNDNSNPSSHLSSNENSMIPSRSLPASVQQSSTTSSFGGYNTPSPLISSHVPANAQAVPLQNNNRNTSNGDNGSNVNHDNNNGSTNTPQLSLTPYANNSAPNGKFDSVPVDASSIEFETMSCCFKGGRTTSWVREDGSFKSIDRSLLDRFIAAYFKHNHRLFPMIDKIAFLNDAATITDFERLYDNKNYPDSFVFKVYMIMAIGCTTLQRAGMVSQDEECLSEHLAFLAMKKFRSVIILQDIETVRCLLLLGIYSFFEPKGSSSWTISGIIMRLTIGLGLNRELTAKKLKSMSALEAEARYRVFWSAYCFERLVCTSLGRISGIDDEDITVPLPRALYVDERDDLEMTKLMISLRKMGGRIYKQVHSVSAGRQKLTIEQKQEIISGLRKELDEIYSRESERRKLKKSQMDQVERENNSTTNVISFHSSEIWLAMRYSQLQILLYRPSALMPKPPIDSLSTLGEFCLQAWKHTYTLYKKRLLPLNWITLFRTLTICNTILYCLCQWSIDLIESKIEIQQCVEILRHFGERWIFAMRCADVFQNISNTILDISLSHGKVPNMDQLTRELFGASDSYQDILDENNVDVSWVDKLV
Experiment: PBM E-score (8-mer binding enrichment) (E-score (-0.5 to 0.5)); higher = stronger / more preferred TF binding; most listed sequences are background and not binding sites
Conditions: protein concentration: 200 nM; construct: GST-full length
Procedure, shortened: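 Yeast transcription factors carrying a GST tag, as full-length proteins or DNA-binding domains, were produced by PURExpress in vitro transcription/translation. About 100-200 nM protein was applied to universal all-10-mer Agilent arrays, double-stranded by primer extension on fresh or once-stripped slides. Bound protein was detected with fluorescent anti-GST, and scans were normalised with masliner. The Universal PBM Analysis Suite gave each ungapped eight-base word, pooled with its reverse complement, an E-score, a modified Wilcoxon-Mann-Whitney statistic.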

Row | Sequence | PBM E-score
1 | GTTTCAAA | 0.0831
2 | AGGAGGGA | -0.215
3 | AGATAAAT | -0.0468
4 | GACACCAC | 0.0001
5 | AATGTAGC | -0.23
6 | ACATACTC | -0.212
7 | ACGGCAGC | 0.0597
8 | CGTAGTGA | -0.13
9 | TATCCTCA | -0.159
10 | AGGCAACT | -0.147
11 | AACGAAAT | 0.0462
12 | AAGGGACC | -0.00597
13 | ACGGTAAG | 0.102
14 | GCGGGTAC | 0.102
15 | CAACCGAA | -0.045
16 | ACAACACA | -0.294
17 | AGAATGGC | -0.129
18 | ACAGCCAT | -0.306
19 | AATGGGGG | -0.124
20 | AGTTCGAT | -0.239
21 | AAGAAAGC | -0.112
22 | AACTCCGT | 0.444
23 | CGGCTACC | 0.041
24 | AATGCGTC | -0.154
25 | CAGAGTAA | -0.179

Row | Sequence | PBM E-score
26 | ACGGGAAG | -0.0191
27 | GTTCCTTA | -0.173
28 | CAGAGATA | -0.148
29 | CTGGCTCC | -0.188
30 | AGAGCCTC | -0.258
31 | TCATCGCA | -0.185
32 | ACTAGCCC | 0.15
33 | AGAGGCAG | -0.38
34 | AGCACGTG | -0.251
35 | AGGGAGTG | -0.196
36 | AATAGTGA | -0.197
37 | CCTCATAG | -0.261
38 | AACTGTAT | -0.0898
39 | GCTAGTAC | -0.109
40 | CCAGGAAG | -0.203
41 | TATAAATA | 0.15
42 | GGGTTTAC | 0.274
43 | ATACGCCG | 0.338
44 | ATACCTAA | -0.105
45 | AGCGAGTA | -0.13
46 | AGTGCCAA | -0.29
47 | GGATGGCC | -0.0663
48 | CTGAGACC | 0.0788
49 | ACTGGCAC | -0.123
50 | GATCTCAA | -0.0631

Row | Sequence | PBM E-score
51 | AGAGCGAA | -0.0399
52 | GCTCATGA | -0.139
53 | GAGGGGTA | -0.0945
54 | CATTAGAC | -0.0617
55 | AAGAAATC | -0.136
56 | CGCAGGTC | -0.0205
57 | CCCCGTGA | 0.146
58 | GAGAATAA | -0.0168
59 | AAACTAGC | -0.0246
60 | GGATAAAC | 0.162
61 | AACGGGCG | 0.171
62 | AATACATA | -0.0377
63 | GGTTACAA | 0.0919
64 | AACCTGCA | -0.225
65 | AAAGCACA | -0.218
66 | TGCATCAA | -0.147
67 | GGCGCATA | 0.149
68 | ATATAAAG | -0.0862
69 | CATGAGAC | -0.0283
70 | CTCTGAAG | -0.182
71 | CAAGACCG | 0.312
72 | ACTGCCTC | -0.165
73 | TGGCCTAA | -0.214
74 | AACCGTCT | 0.0096
75 | ATCATCCA | -0.198

Row | Sequence | PBM E-score
76 | AAAACGTC | -0.179
77 | CACATCGC | -0.138
78 | TATGTACA | -0.21
79 | GATAGTAA | 0.0825
80 | GTCAAAAC | 0.236
81 | AGGCCCGC | 0.36
82 | AAAGCCAC | -0.1
83 | CCCACTAG | -0.117
84 | GTGAGCTA | -0.357
85 | TAGAAGAA | -0.0144
86 | AGTTTTAT | -0.00831
87 | CCGAAGTA | 0.145
88 | CGCCATAC | 0.0836
89 | CAAATAAC | 0.119
90 | AATCAACT | -0.043
91 | CGTTCTTA | 0.135
92 | CAATGCCA | -0.302
93 | ACATCGCC | 0.21
94 | AACCATTC | -0.0229
95 | TGGCATAA | -0.199
96 | CGACATAG | -0.141
97 | GGGGCGAC | -0.0307
98 | CGTACGCA | -0.0495
99 | TCCTGCAA | -0.17
100 | CTGGAGAC | -0.149

Row | Sequence | PBM E-score
101 | TGACTGCA | -0.31
102 | AAAAATTG | -0.0477
103 | AAAGGACG | -0.117
104 | TATCTAAA | -0.014
105 | AGATTGTA | -0.0889
106 | AAAAAGCC | 0.302
107 | ATGGGGAG | -0.347
108 | GGTTTCGA | 0.0545
109 | CCGGTAAG | 0.236
110 | TAACGCGA | -0.0498
111 | GCGCTCTA | 0.00012
112 | GATCGCGA | -0.0319
113 | TGACGAAA | -0.149
114 | CTGTACAA | -0.115
115 | TACGGAGA | 0.198
116 | GTAGGTGA | 0.0842
117 | CGTAAGCC | 0.0188
118 | TCAGATGA | -0.124
119 | AGTAATAG | -0.23
120 | AGGGGCCA | -0.19
121 | CGATGGCC | 0.0541
122 | CTCGACTA | -0.186
123 | CAGGGCAC | 0.00217
124 | GCAGTACC | 0.00183
125 | ATCTGTAG | -0.118

Row | Sequence | PBM E-score
126 | GCCACAGC | -0.304
127 | TACACGGA | 0.114
128 | AAGCGACG | 0.0896
129 | AACTCAAA | -0.125
130 | GCTCGTAA | -0.138
131 | GCCACTAA | -0.147
132 | ACTCGGCA | 0.00054
133 | GCACACAA | -0.107
134 | AAGTGTCA | -0.203
135 | CAAATGTG | 0.0201
136 | AAGTGAAC | -0.129
137 | AGGGAGAT | -0.331
138 | ACAAAAGC | 0.0644
139 | GTGCTCCA | -0.24
140 | ATGATACC | 0.253
141 | AACGCTGC | -0.117
142 | ACTGACTA | -0.227
143 | AAGCCGAA | -0.0397
144 | GTTTAATA | -0.0762
145 | ACCTCTAT | -0.163
146 | CGCCGCCA | 0.348
147 | CCGTACCC | 0.0308
148 | AAAACCTA | -0.149
149 | AAGTAAAA | -0.0754
150 | AATCCAAG | -0.243

Row | Sequence | PBM E-score
151 | TCCGGACA | 0.259
152 | TACCTATA | -0.234
153 | AAACGCTA | -0.106
154 | GACGACAA | -0.164
155 | GTGTTACA | 0.276
156 | AGGCGATA | -0.0449
157 | GCCGTAGC | 0.255
158 | CGTCAGAG | 0.108
159 | ATGTCCCG | 0.219
160 | CACTGGCG | -0.0814
161 | GGGCCTAC | 0.066
162 | CCTACAAA | -0.067
163 | GCACCACC | 0.00033
164 | ACCCGAGA | -0.0132
165 | CGGTGAGA | 0.308
166 | AGACCCGG | 0.341
167 | ACTGTGCT | -0.241
168 | CAATACAC | 0.0404
169 | ATTGGAAA | -0.0189
170 | AGTAAAAT | -0.0638
171 | TATCAATA | -0.107
172 | AACCACAC | -0.0692
